According to the supplement of paper PMC8728848:
The other results are listed elsewhere or left out.

Experiments:
Test in all cases: glycan array binding signal (z-score within array); higher = stronger binding
Conditions in all cases: glycan notation: IUPAC condensed, linker removed
[1] = molecular target: Fuc(a1-2)Gal6S(b1-3)GlcNAc
Method in brief: (§1)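 Arrays were curated from the Consortium for Functional Glycomics database, 3228 in total, and kept only where the protein sequence was available. Binding is expressed as a within-array Z-score. This score was averaged across arrays of the same protein sequence at different concentrations or buffers and across linkers, and negative values can be read as non-binding.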

[2] = molecular target: Fuc(a1-2)Gal6S(b1-3)GlcNAc6S
Method in brief: as §1

Fuc(a1-2)Gal6S(b1-4)Glc = molecular target: Fuc(a1-2)Gal6S(b1-4)Glc
Method in brief: as §1

[3] = molecular target: Fuc(a1-2)Gal6S(b1-4)Glc6S
Method in brief: as §1

Fuc(a1-2)[Gal(a1-3)]Gal = molecular target: Fuc(a1-2)[Gal(a1-3)]Gal
Method in brief: as §1

[4] = molecular target: Fuc(a1-2)[Gal(a1-3)]Gal(b1-3)GalNAc
Method in brief: as §1

[5] = molecular target: Fuc(a1-2)[Gal(a1-3)]Gal(b1-3)GalNAc(b1-3)Gal(a1-4)Gal(b1-4)Glc
Method in brief: as §1

[6] = molecular target: Fuc(a1-2)[Gal(a1-3)]Gal(b1-3)GlcNAc
Method in brief: as §1

[7] = molecular target: Fuc(a1-2)[Gal(a1-3)]Gal(b1-3)GlcNAc(b1-2)Man(a1-3)[Fuc(a1-2)[Gal(a1-3)]Gal(b1-3)GlcNAc(b1-2)Man(a1-6)]Man(b1-4)GlcNAc(b1-4)GlcNAc
Method in brief: as §1

[8] = molecular target: Fuc(a1-2)[Gal(a1-3)]Gal(b1-3)GlcNAc(b1-2)Man(a1-3)[Fuc(a1-2)[Gal(a1-3)]Gal(b1-3)GlcNAc(b1-2)Man(a1-6)]Man(b1-4)GlcNAc(b1-4)[Fuc(a1-6)]GlcNAc
Method in brief: as §1

[9] = molecular target: Fuc(a1-2)[Gal(a1-3)]Gal(b1-3)GlcNAc(b1-3)GalNAc
Method in brief: as §1

[10] = molecular target: Fuc(a1-2)[Gal(a1-3)]Gal(b1-3)GlcNAc(b1-6)GalNAc
Method in brief: as §1

[11] = molecular target: Fuc(a1-2)[Gal(a1-3)]Gal(b1-4)Glc
Method in brief: as §1

[12] = molecular target: Fuc(a1-2)[Gal(a1-3)]Gal(b1-4)GlcNAc
Method in brief: as §1

[13] = molecular target: Fuc(a1-2)[Gal(a1-3)]Gal(b1-4)GlcNAc(b1-2)Man
Method in brief: as §1

[14] = molecular target: Fuc(a1-2)[Gal(a1-3)]Gal(b1-4)GlcNAc(b1-2)Man(a1-3)[Fuc(a1-2)[Gal(a1-3)]Gal(b1-4)GlcNAc(b1-2)Man(a1-6)]Man(b1-4)GlcNAc(b1-4)GlcNAc
Method in brief: as §1

[15] = molecular target: Fuc(a1-2)[Gal(a1-3)]Gal(b1-4)GlcNAc(b1-2)Man(a1-3)[Fuc(a1-2)[Gal(a1-3)]Gal(b1-4)GlcNAc(b1-2)Man(a1-6)]Man(b1-4)GlcNAc(b1-4)[Fuc(a1-6)]GlcNAc
Method in brief: as §1

[16] = molecular target: Fuc(a1-2)[Gal(a1-3)]Gal(b1-4)GlcNAc(b1-3)GalNAc
Method in brief: as §1

[17] = molecular target: Fuc(a1-2)[Gal(a1-3)]Gal(b1-4)GlcNAc(b1-3)[Fuc(a1-2)[Gal(a1-3)]Gal(b1-4)GlcNAc(b1-6)]GalNAc
Method in brief: as §1

[18] = molecular target: Fuc(a1-2)[Gal(a1-3)]Gal(b1-4)GlcNAc(b1-6)GalNAc
Method in brief: as §1

[19] = molecular target: Fuc(a1-2)[Gal(a1-3)]Gal(b1-4)[Fuc(a1-3)]Glc
Method in brief: as §1

[20] = molecular target: Fuc(a1-2)[Gal(a1-3)]Gal(b1-4)[Fuc(a1-3)]GlcNAc
Method in brief: as §1

[21] = molecular target: Fuc(a1-2)[Gal(a1-3)]Gal(b1-4)[Fuc(a1-3)]GlcNAc(b1-3)GalNAc
Method in brief: as §1

[22] = molecular target: Fuc(a1-2)[Gal(a1-4)]Gal(b1-4)GlcNAc
Method in brief: as §1

[23] = molecular target: Fuc(a1-2)[GalNAc(a1-3)]Gal
Method in brief: as §1

[24] = molecular target: Fuc(a1-2)[GalNAc(a1-3)]Gal(b1-3)GalNAc(a1-3)[Fuc(a1-2)]Gal(b1-4)GlcNAc
Method in brief: as §1

[25] = molecular target: Fuc(a1-2)[GalNAc(a1-3)]Gal(b1-3)GalNAc(b1-3)Gal(a1-4)Gal(b1-4)Glc
Method in brief: as §1

[26] = molecular target: Fuc(a1-2)[GalNAc(a1-3)]Gal(b1-3)GlcNAc
Method in brief: as §1

[27] = molecular target: Fuc(a1-2)[GalNAc(a1-3)]Gal(b1-3)GlcNAc(b1-2)Man(a1-3)[Fuc(a1-2)[GalNAc(a1-3)]Gal(b1-3)GlcNAc(b1-2)Man(a1-6)]Man(b1-4)GlcNAc(b1-4)GlcNAc
Method in brief: as §1

[28] = molecular target: Fuc(a1-2)[GalNAc(a1-3)]Gal(b1-3)GlcNAc(b1-2)Man(a1-3)[Fuc(a1-2)[GalNAc(a1-3)]Gal(b1-3)GlcNAc(b1-2)Man(a1-6)]Man(b1-4)GlcNAc(b1-4)[Fuc(a1-6)]GlcNAc
Method in brief: as §1

[29] = molecular target: Fuc(a1-2)[GalNAc(a1-3)]Gal(b1-3)GlcNAc(b1-3)GalNAc
Method in brief: as §1

[30] = molecular target: Fuc(a1-2)[GalNAc(a1-3)]Gal(b1-3)GlcNAc(b1-6)GalNAc
Method in brief: as §1

[31] = molecular target: Fuc(a1-2)[GalNAc(a1-3)]Gal(b1-4)Glc
Method in brief: as §1

[32] = molecular target: Fuc(a1-2)[GalNAc(a1-3)]Gal(b1-4)GlcNAc
Method in brief: as §1

[33] = molecular target: Fuc(a1-2)[GalNAc(a1-3)]Gal(b1-4)GlcNAc(b1-2)Man
Method in brief: as §1

[34] = molecular target: Fuc(a1-2)[GalNAc(a1-3)]Gal(b1-4)GlcNAc(b1-2)Man(a1-3)[Fuc(a1-2)[GalNAc(a1-3)]Gal(b1-4)GlcNAc(b1-2)Man(a1-6)]Man(b1-4)GlcNAc(b1-4)GlcNAc
Method in brief: as §1

[35] = molecular target: Fuc(a1-2)[GalNAc(a1-3)]Gal(b1-4)GlcNAc(b1-2)Man(a1-3)[Fuc(a1-2)[GalNAc(a1-3)]Gal(b1-4)GlcNAc(b1-2)Man(a1-6)]Man(b1-4)GlcNAc(b1-4)[Fuc(a1-6)]GlcNAc
Method in brief: as §1

[36] = molecular target: Fuc(a1-2)[GalNAc(a1-3)]Gal(b1-4)GlcNAc(b1-3)Gal(b1-4)GlcNAc
Method in brief: as §1

[37] = molecular target: Fuc(a1-2)[GalNAc(a1-3)]Gal(b1-4)GlcNAc(b1-3)Gal(b1-4)GlcNAc(b1-3)Gal(b1-4)GlcNAc
Method in brief: as §1

[38] = molecular target: Fuc(a1-2)[GalNAc(a1-3)]Gal(b1-4)GlcNAc(b1-3)GalNAc
Method in brief: as §1

[39] = molecular target: Fuc(a1-2)[GalNAc(a1-3)]Gal(b1-4)GlcNAc(b1-3)[Fuc(a1-2)[GalNAc(a1-3)]Gal(b1-4)GlcNAc(b1-6)]GalNAc
Method in brief: as §1

[40] = molecular target: Fuc(a1-2)[GalNAc(a1-3)]Gal(b1-4)GlcNAc(b1-6)GalNAc
Method in brief: as §1

[41] = molecular target: Fuc(a1-2)[GalNAc(a1-3)]Gal(b1-4)[Fuc(a1-3)]GlcNAc
Method in brief: as §1

[42] = molecular target: Fuc(a1-2)[GalNAc(a1-3)]Gal(b1-4)[Fuc(a1-3)]GlcNAc(b1-3)GalNAc
Method in brief: as §1

[43] = molecular target: Fuc(a1-2)[GalNAc(a1-4)]Gal(b1-4)GlcNAc
Method in brief: as §1

B1: Banana lectin (Musa acuminata) (protein)
chain: MNGAIKVGAWGGNGGSAFDMGPAYRIISVKIFSGDVVDGVDVTFTYYGKTETRHYGGSGGTPHEIVLQEGEYLVGMAGEVANYHGAVVLGKLGFSTNKKAYGPFGNTGGTPFSLPIAAGKISGFFGRGGKFLDAIGVYLEPLEHHHHHH
[1]
  glycan array binding signal (z-score): -0.216
[2]
  glycan array binding signal (z-score): -0.182
Fuc(a1-2)Gal6S(b1-4)Glc
  glycan array binding signal (z-score): -0.203
[3]
  glycan array binding signal (z-score): -0.223
Fuc(a1-2)[Gal(a1-3)]Gal
  glycan array binding signal (z-score): -0.259
[4]
  glycan array binding signal (z-score): -0.162
[5]
  glycan array binding signal (z-score): -0.202
[6]
  glycan array binding signal (z-score): -0.193
[7]
  glycan array binding signal (z-score): 0.148
[8]
  glycan array binding signal (z-score): 0.651
[9]
  glycan array binding signal (z-score): -0.22
[10]
  glycan array binding signal (z-score): -0.374
[11]
  glycan array binding signal (z-score): -0.217
[12]
  glycan array binding signal (z-score): -0.182
[13]
  glycan array binding signal (z-score): -0.204
[14]
  glycan array binding signal (z-score): -0.047
[15]
  glycan array binding signal (z-score): 0.595
[16]
  glycan array binding signal (z-score): -0.183
[17]
  glycan array binding signal (z-score): -0.195
[18]
  glycan array binding signal (z-score): -0.182
[19]
  glycan array binding signal (z-score): -0.191
[20]
  glycan array binding signal (z-score): -0.217
[21]
  glycan array binding signal (z-score): -0.192
[22]
  glycan array binding signal (z-score): -0.275
[23]
  glycan array binding signal (z-score): -0.181
[24]
  glycan array binding signal (z-score): -0.211
[25]
  glycan array binding signal (z-score): -0.218
[26]
  glycan array binding signal (z-score): -0.184
[27]
  glycan array binding signal (z-score): -0.219
[28]
  glycan array binding signal (z-score): 0.778
[29]
  glycan array binding signal (z-score): -0.215
[30]
  glycan array binding signal (z-score): -0.237
[31]
  glycan array binding signal (z-score): -0.118
[32]
  glycan array binding signal (z-score): -0.154
[33]
  glycan array binding signal (z-score): -0.214
[34]
  glycan array binding signal (z-score): -0.019
[35]
  glycan array binding signal (z-score): 0.421
[36]
  glycan array binding signal (z-score): -0.238
[37]
  glycan array binding signal (z-score): -0.187
[38]
  glycan array binding signal (z-score): -0.223
[39]
  glycan array binding signal (z-score): -0.173
[40]
  glycan array binding signal (z-score): -0.213
[41]
  glycan array binding signal (z-score): -0.236
[42]
  glycan array binding signal (z-score): -0.215
[43]
  glycan array binding signal (z-score): -0.19
